# Laboratory results: the RNAGym collection of RNA variant scans (doi:10.1093/nar/gkz1192)
# Read counts are not given, so values of variants with three or more changes are uncertain.
# B1: CPEB3 Ribozyme (parent)
# chain: UAACAGGGGGCCACAGCAGAAGCGUUCACGUCGCAGCCCCUGUCAGAUUCUGGUGAAUCUGCGAAUUCUGCUGUAUAUCUC
# Variants of: B1
# Assay: self-cleavage, relative activity (ratio to wild type); higher = more cleavage; in vitro, sequencing
# In short: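 After error-prone PCR and barcoding, CPEB3 ribozyme mutant libraries were transcribed with T7 RNA polymerase at 37°C for 5 hours, then given 15 min with DNase I before an EDTA stop, and they cleaved during both steps. Reverse transcription with template switching preceded Illumina sequencing. Relative activity divides a variant's cleaved/total read fraction by the unmutated ribozyme's. At least 5 reads were required per variant, and three batches were averaged.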
row,Variant,self-cleavage
1,C39A A45G A47G,0.19
2,C39A A45G U54A U74A,0.19
3,C39A A45G U69C U78A,0.06
4,C39A A56G U58C,0.14
5,C39A A56G U69A,0.14
6,C39A A57G U58A,0.06
7,C39A A57G U66A,0.08
8,C39A A64G A75G,0.08
9,C39A C40A G42U,0.19
10,C39A C40U A47U,0.09
11,C39A G46C A77G,0.15
12,C39A U41A U76A,0.08
13,C39A U41C A57G U76C,0.15
14,C39A U41C U58C U69A,0.07
15,C39A U43C A64G U78C,0.06
16,C39A U48C U51G A64U,0.14
17,C39A U48C U54C,0.09
18,C39A U49A U66C,0.18
19,C39A U54C U66C,0.14
20,C39A U60A G61A U78C,0.43
21,C39A U66A G73C,0.78
22,C39A U76A U80A,0.36
23,C39G A56G C62U U66C U80C,0.1
24,C39G A57G U78C,0.13

row,Variant,self-cleavage
1,C39G A64U U67A,0.09
2,C39G A64U U72A,0.05
3,C39G C50G U74A,0.05
4,C39G U43A C68A C71A,0.15
5,C39G U43A U58A U67C A75G U80C,0.04
6,C39U A45G A57U U78G,0.16
7,C39U A56G C59A U80C,0.16
8,C39U A64G U69C,0.13
9,C39U A64G U72C,0.41
10,C39U U41C U80C,1.09
11,C39U U43A A45C,0.11
12,C39U U43C A45G A47U U48C U60A,0.18
13,C39U U43C A56G U58C,0.14
14,C39U U49A U51G U69A U74C,0.09
15,C39U U54C A64G,0.34
16,C39U U54G U80C,0.38
17,C40A A45G A56G,0.24
18,C40A A45G U80C,0.09
19,C40A A47U U67C,0.08
20,C40A A56C U60C,0.08
21,C40A A56G A65G U80G,0.33
22,C40A A56G U69C U74A,0.04
23,C40A A57U C79G,0.04
24,C40A A57U U60C U66A A75C,0.14

row,Variant,self-cleavage
1,C40A A64G U78C,0.07
2,C40A C44U A56G U78A,0.25
3,C40A U41A A45U U72C,0.28
4,C40A U41A A57G A65U U74C,0.22
5,C40A U41A U67C,0.17
6,C40A U41C U48A U72C C81A,0.12
7,C40A U41C U72G,0.17
8,C40A U43A U60A U69C,0.11
9,C40A U43A U78G,0.15
10,C40A U43C A64U,0.13
11,C40A U43C U51C,0.14
12,C40A U48C A64G,0.13
13,C40A U49C A65G,0.11
14,C40A U51A U69G,0.64
15,C40A U51C G52A U54C U60C,0.13
16,C40A U51C U69C,0.21
17,C40A U51C U72A,0.11
18,C40A U51G A64G,0.24
19,C40A U54C U72A,0.11
20,C40A U58C A64C,0.04
21,C40A U58C A64U A65G,0.38
22,C40A U60C U69A,0.16
23,C40A U67A U80C,0.13
24,C40G A45G U60A,0.24

row,Variant,self-cleavage
1,C40G A45U U67C,0.15
2,C40G A56G U67C,0.14
3,C40G G55A A64G U69C U72C,0.18
4,C40G U41A G63U U72C U80C,0.1
5,C40G U54C A56G A65U,0.08
6,C40U A45C A77G U78C,0.13
7,C40U A45U A57G C68A,0.25
8,C40U A45U A64U U78C,0.11
9,C40U A45U U74A,0.65
10,C40U A47G A56U,0.3
11,C40U A47G A64U,0.12
12,C40U A47G C59U,0.19
13,C40U A47G G63U U78C,0.47
14,C40U A56G U67C,0.11
15,C40U A56U A57C,0.16
16,C40U A65G A75G,0.13
17,C40U A65G U67C,0.15
18,C40U A65G U69A U72C,0.13
19,C40U A65G U72C,0.36
20,C40U G42A U51C A56G G61A,0.1
21,C40U G42A U78G,0.43
22,C40U G46U U78C,0.23
23,C40U G55A U66C U72C U74A,0.11
24,C40U G63U U72G,1.12

row,Variant,self-cleavage
1,C40U U41C U43C A56U U58C U78C,0.13
2,C40U U41C U67C,0.16
3,C40U U41C U80C,0.51
4,C40U U43A U48C,0.27
5,C40U U43C U49C A65G U69A,0.14
6,C40U U48A U51A U54C A57G U80A,0
7,C40U U48C A56G,0.29
8,C40U U48C A56U U76C,0.14
9,C40U U48C U54G A77C,0.17
10,C40U U49A U66C,0.29
11,C40U U49C G52C A64U,0.1
12,C40U U54C A65U U72C,0.19
13,C40U U54G A64G,0.26
14,C40U U54G U74A,0.72
15,C40U U58C U69C U72C,0.35
16,C40U U66C U67A C68U U76C U80C,0.1
17,C40U U67A U72C,0.28
18,C40U U67C U72C,0.09
19,C40U U74C U78C,1.06
20,C40U U74C U80C,0.75
21,U41A A45C A75U,0.19
22,U41A A45G C50U U78C,0.2
23,U41A A45G U49A,0.53
24,U41A A45G U51A,0.18

row,Variant,self-cleavage
1,U41A A45G U51A A57G U67C,0.15
2,U41A A45G U51C U76C,0.08
3,U41A A45G U51G A56G U66C U78C,0.11
4,U41A A45G U60G A64C,0.1
5,U41A A45G U69A,0.39
6,U41A A45G U80A,0.21
7,U41A A45U A64G U69A U78C,0.17
8,U41A A45U U48C,0.22
9,U41A A45U U58C,0.1
10,U41A A45U U69C,0.12
11,U41A A47G A56G,0.23
12,U41A A47G A64G U76C,0.11
13,U41A A47G G55A,0.07
14,U41A A47G U48C U54A,0.07
15,U41A A47G U51C A57U U60G,0.1
16,U41A A47G U54C,0.12
17,U41A A47G U60C A65G,0.1
18,U41A A47G U66C U80A,0.07
19,U41A A47U U54A U58A,0.33
20,U41A A47U U67A,0.04
21,U41A A56C U67C A75G C81A,0.11
22,U41A A56G A64U A77U,0.31
23,U41A A56G A65G U72C C81G,0.16
24,U41A A56G C62U A77U U80C,0.19

row,Variant,self-cleavage
1,U41A A56G U72A,0.05
2,U41A A56G U80C,0.32
3,U41A A56U A64G,0.08
4,U41A A56U U69C,0.1
5,U41A A56U U74A,0.44
6,U41A A56U U76A,0.08
7,U41A A57G U60A,0.07
8,U41A A57G U72C,0.22
9,U41A A57G U74C,0.13
10,U41A A64G U69C U78C,0.18
11,U41A A64U A77G,0.11
12,U41A A64U U67C,0.35
13,U41A A64U U69C,0.19
14,U41A A64U U80C,0.42
15,U41A A65G A77G,0.53
16,U41A A65G U78C,0.08
17,U41A A65G U80G,0.21
18,U41A A75G A77G,0.04
19,U41A A75G U80C,0.15
20,U41A C44A U54C,0.09
21,U41A C44A U60A A77U,0.19
22,U41A C44U U51G,0.19
23,U41A G42A G63C,0.31
